These results are taken from the RNAGym collection of RNA variant scans (doi:10.7554/elife.90254).

The source gives no read counts; variants with many changes may rest on few reads.

B1: LINE1-mini (parent)
chain: GGCAGAGCUCAACACAGCGUGGCAAAGUGGCUGUGGCUAGACUGCC

The variants in this series derive from B1. The series can be described thus: self-cleavage, relative activity (ratio to wild type); higher = more cleavage; in vitro, sequencing; the parent is a self-cleaving ribozyme.
For GGCAGGGCUCAACACAGCGUGGAAAAGAGUUUUUGGCUAGUCUGCG [A6G C23A U28A G30U C31U G33U A41U C46G], the self-cleavage came out at 0.03.
With GGCAGGGCUCAACACAUCGUGGCAAAGUGGCUGUGGCUAGAUUGCC [A6G G17U C42U], the self-cleavage stood at 0.04.
With GGCAGGGCUCAACAAAGCGUAGCAAAGUGGCUGUGGCUAGACUGCC [A6G C15A G21A] the figure was 0.07.
On to GGCAGGGCUCAACACAGCGUGGCCAAGUGUCUGUGGCUAGACUGCC [A6G A24C G30U], for which the self-cleavage worked out at 0.06.
GGCAGGGCUCAACAAAGCGUGCCAAAGUGUCUGUGGCUAGACUGCC [A6G C15A G22C G30U]: the self-cleavage came out at 0.05.
Consider GGCAGGGCUCAACAUACCGUGGCAAAGUGGCUGUGGCUAGACUGCC [A6G C15U G17C], for which the self-cleavage is 0.32.
For the variant GGCAGGGCUCAACAGAGCGUGGCAAAGUGGCUGUCGAUAGACUGCC [A6G C15G G35C C37A], the self-cleavage was 0.01.
On to GGCAGGGAUCAACACAGCGUGGCAACGUGGCUGUGGCUAGACUGCC [A6G C8A A26C], for which the self-cleavage was 0.13.
Next, GGCAGGGAUCAACAUAGCGUGGCAAAGUGGCUGUGGCUAGACUGCC [A6G C8A C15U]: 0.16.
Turning to GGCAGGGCUCAACACAGCGUGGCAACGUGGCUGUAGCUAGACUACC [A6G A26C G35A G44A], the self-cleavage turned out to be 0.14.
For GGCAGGGGUGAACACAGCGUCGCAAAGUGGCUGUGGCUAGACUGCC [A6G C8G C10G G21C], the self-cleavage came to 0.01.
With GGCAGGGGUCAACACAGCUUGGCAAAGAGGCUGUGGCUAGACUGCU [A6G C8G G19U U28A C46U], the self-cleavage was 0.02.
Next, GGCAGGGCUCAACACUGAGUGGCAAAGUGGCUGUGACUAGACUGCC [A6G A16U C18A G36A]: 0.04; GGCAGGGCUCAACACAGCGUGGCAAAGUGGCUGUGGCUAGUCUGCU [A6G A41U C46U]: 0.09; GGCAGGCCUCAACACAGCGUGGCAAAGUGGCUGUGGCGAGACUGCC [A6G G7C U38G]: 0.03.
Next, GGCAGGGCUCAACACUGCGUGGCGAAGUUGCUGUGGCUAGACUGCC [A6G A16U A24G G29U]: 0.11; GGCAGGGAUCAACACAGCGUGGCAAAGUGGCUGUGCCUAGACUGCC [A6G C8A G36C]: 0.24.
Regarding GGCAGGGCUCAACACAGCGUGGCAUAGUGGCUGUUGUUAGACUGCC [A6G A25U G35U C37U], the self-cleavage came out at 0.03.
Next, GGCAGGGCUCAACACAGCUUGGCAAAGUGGCUGUGGCUGGACUGCC [A6G G19U A39G]: 0.02.
With GGCAGGGCUCAAGACAGCGUGGCAAAGUGGCUGUGGCUAGAUUGCC [A6G C13G C42U] the figure was 0.01.
With GGCAGGGCUCAAUAGAGCGUGGCAACGUGGCUGUGGCUAUACUGCC [A6G C13U C15G A26C G40U] the figure was 0.01; with GGCAGGGCUCAAGACAGCGAGGCAAAGUGGCUGGGGCUAGACUGCC [A6G C13G U20A U34G], 0.03.
GGCAGGGCUCAAGACAGCGUAGCAAAGUGGCUGUGGCUAGACUGCC [A6G C13G G21A]: the self-cleavage came to 0.03.
Take GGCAGGGCUCAACAUAGCGUGGCAAAGUGGCUGUGGUCAGACUGCC [A6G C15U C37U U38C]: the self-cleavage came out at 0.1.
On to GGCAGGACUCAACACAGCCUGGCAAAGUCUGUCCGGCUAGACUACC [A6G G7A G19C G29C G30U C31G G33C U34C G44A], for which the self-cleavage amounted to 0.04.
As for GGCAGGGCUCAACACAGCGUGGCAUAGGGGAUGGGGCUAGACUGCC [A6G A25U U28G C31A U34G], the self-cleavage turned out to be 0.01.
Next, GGCAGGGCUCAACACAGCCUGGGAAAGUGGCUGUGACUAGACUGCC [A6G G19C C23G G36A]: 0.01; GGCAGGGCUCAACAUAGCGUGGCAAAGUCGCUGUGCCUAGACUGCC [A6G C15U G29C G36C]: 0.27; GGCAGGGGUCAACACAGAGUGGCAAAGUGGCUGUGGCCAGACUGCC [A6G C8G C18A U38C]: 0.04.
For GGCAGGGCUCAACACAGCCUGGCAAAGUGGGUGUGGCUAGACUGCC [A6G G19C C31G], the self-cleavage came out at 0.01.
Next, GGCAGGGCUCAACACCGCGUGGCAAAGUGGCUCUGCCUAGAAAGUC [A6G A16C G33C G36C C42A U43A C45U]: 0; GGCAGGGCUCAACACCGCGUGACAAAGUGGCUGUUGCUAGACUGCC [A6G A16C G22A G35U]: 0.01; GGCAGGGCUCAACAGACCGUGGCAAAGUGGUUGUGGCUAGACUGCC [A6G C15G G17C C31U]: 0.02.
As to GGCAGGGCUCAACACAGCGUGGCAAUUUGGCUGUGGCUAGACUGCC [A6G A26U G27U], the self-cleavage stood at 0.02.
With GGCAGGGCUCAAUACAGCGCGGCAAAGUGGCUGUGGCUAGACUGUC [A6G C13U U20C C45U] the figure was 0.04; with GGCAGGGCUCAACACAGCGUGGGAAAGUGGCUGUGGCUAUACUGCC [A6G C23G G40U], 0.04.
For GGCAGGGCUCAAGACAGCGUGGCAAAAUGGCUGUGGCUAGACUGCC [A6G C13G G27A], the self-cleavage was 0.02.
Take GGCAGGGCUUAACACAGCGUGGCAAAGUGGCUCUGGCUAGACUGCC [A6G C10U G33C]: the self-cleavage amounted to 0.03.
As for GGCAGGGGUCAACUCAGCGGGGCAAUGUGACUGUGGCUAGAUUGCC [A6G C8G A14U U20G A26U G30A C42U], the self-cleavage stood at 0.01.
Consider GGCAGGGCUCAACAAAGCGUGGCAAAGUGGCUGUGGCUAGUCCGCC [A6G C15A A41U U43C], for which the self-cleavage was 0.02.
On to GGCAGGGCUCAAUACAGCGUGGGAAAGUGGCUGUGGCUAGACUGCC [A6G C13U C23G], for which the self-cleavage came out at 0.04.
Regarding GGCAGGGCUCAACACAGCGUGGCCAAGAGGCUGUGUCAAGACUGCC [A6G A24C U28A G36U U38A], the self-cleavage was determined as 0.01.
Turning to GGCAGGGGUCAACACAGCGUGGCAAAGUGGCUGUGGCCAGACUGCC [A6G C8G U38C], the self-cleavage was 0.09.
Consider GGCAGGGCUCAAAACAUCGUGGCAAAUUGGCUGUGGCUAGACUGCC [A6G C13A G17U G27U], for which the self-cleavage turned out to be 0.03.
Consider GGCAGGACUCAACACAGCGUGGCAAAGUGGCUGUGGUUAGACUACC [A6G G7A C37U G44A], for which the self-cleavage was determined as 0.03.
With GGCAGGGCUCAACACAGCGUGGCAAAGUGGUUGUGGCUAGAAUGCC [A6G C31U C42A], the self-cleavage amounted to 0.03.
For GGCAGGGCUCAACACUGCGUAGCAAAGUGGCUGUGGCUAGACUGCC [A6G A16U G21A], the self-cleavage amounted to 0.01.
Regarding GGCAGGGCUCAACACACCGUGGGAAAGUGGCUGUGACUAGACUGCC [A6G G17C C23G G36A], the self-cleavage is 0.02.
GGCAGGGCUCAACACAGUGUGGCAAAGUCGCAGUGCCUAGACUGCC [A6G C18U G29C U32A G36C]: the self-cleavage was 0.03.
Take GGCAGGGAUCAACACAGAGUGGCAAAGUGGCUGUAGCUAGACUGCC [A6G C8A C18A G35A]: the self-cleavage was determined as 0.14.
Consider GGCAGGACACAACACAGCGUGGCAAAGGGGCUGUGGCUAGACUUCA [A6G G7A U9A U28G G44U C46A], for which the self-cleavage worked out at 0.04.
As to GGCAGGGCUAAACACAACGUUGCAAAGUGGCUGUGGCUACACUGCC [A6G C10A G17A G21U G40C], the self-cleavage is 0.01.
With GGCAGGGCUGAACACAGCGUGGCAAAGUGGCUGUGGUUAAACUGCC [A6G C10G C37U G40A], the self-cleavage turned out to be 0.
Regarding GGCAGGGCUCAACACAGCGUGGCAAUGUGGCUAUGGCUAGACUGCC [A6G A26U G33A], the self-cleavage was 0.04.
For the variant GGCAGGGGUCAACUCAGCGUGGCAAAUUGGCUGUGGCAUGACUGAC [A6G C8G A14U G27U U38A A39U C45A], the self-cleavage was determined as 0.02.
On to GGCAGGGCUCAACACCGCGUGGCAAAGUGGCUGUGGCUAGACUGUC [A6G A16C C45U], for which the self-cleavage was found to be 0.09.
